From publication PMC5722342
Results are given in words; binding and its absence hold for the method and conditions named. Binding seen in cells or lysates may run through a third protein. Some entries that bind do so weakly or less than the wild type.

Chains of the proteins cited; added tags and fusions are not shown.
UniProt Q7Z434: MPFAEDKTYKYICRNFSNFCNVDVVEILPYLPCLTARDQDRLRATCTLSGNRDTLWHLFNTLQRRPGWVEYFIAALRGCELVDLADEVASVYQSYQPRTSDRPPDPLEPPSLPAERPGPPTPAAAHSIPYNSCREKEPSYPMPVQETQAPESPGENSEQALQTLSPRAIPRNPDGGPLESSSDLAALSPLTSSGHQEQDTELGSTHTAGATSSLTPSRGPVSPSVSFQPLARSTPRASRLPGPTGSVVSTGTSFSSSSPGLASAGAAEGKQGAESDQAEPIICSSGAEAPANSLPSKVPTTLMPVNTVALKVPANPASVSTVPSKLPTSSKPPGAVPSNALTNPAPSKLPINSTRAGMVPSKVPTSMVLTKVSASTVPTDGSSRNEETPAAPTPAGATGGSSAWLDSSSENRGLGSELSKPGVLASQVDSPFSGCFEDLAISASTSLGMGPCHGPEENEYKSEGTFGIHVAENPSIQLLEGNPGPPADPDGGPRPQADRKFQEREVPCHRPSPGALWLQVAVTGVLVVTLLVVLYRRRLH

What was measured:
[1] = molecular target: VISA (endogenous) (human (endogenous in HEK293 and HEK293T)) (UniProt Q7Z434); assay: co-IP; called endogenous co-IP in the text; HEK293 cells transfected with iRhom2 plasmids, un-infected or infected with SeV for the indicated times; NP-40 lysis buffer (Fig 4B)
[2] = molecular target: T1, MDA5 (UniProt Q9BYX4); assay: co-IP; HEK293 cells transfected with the indicated plasmids; NP-40 lysis buffer (20 mM Tris-HCl pH 7.4, 150 mM NaCl, 1 mM EDTA, 1% Nonidet P-40); immunoprecipitation and immunoblot with the indicated antibodies (Fig 4A, 4C)
T1 sequence: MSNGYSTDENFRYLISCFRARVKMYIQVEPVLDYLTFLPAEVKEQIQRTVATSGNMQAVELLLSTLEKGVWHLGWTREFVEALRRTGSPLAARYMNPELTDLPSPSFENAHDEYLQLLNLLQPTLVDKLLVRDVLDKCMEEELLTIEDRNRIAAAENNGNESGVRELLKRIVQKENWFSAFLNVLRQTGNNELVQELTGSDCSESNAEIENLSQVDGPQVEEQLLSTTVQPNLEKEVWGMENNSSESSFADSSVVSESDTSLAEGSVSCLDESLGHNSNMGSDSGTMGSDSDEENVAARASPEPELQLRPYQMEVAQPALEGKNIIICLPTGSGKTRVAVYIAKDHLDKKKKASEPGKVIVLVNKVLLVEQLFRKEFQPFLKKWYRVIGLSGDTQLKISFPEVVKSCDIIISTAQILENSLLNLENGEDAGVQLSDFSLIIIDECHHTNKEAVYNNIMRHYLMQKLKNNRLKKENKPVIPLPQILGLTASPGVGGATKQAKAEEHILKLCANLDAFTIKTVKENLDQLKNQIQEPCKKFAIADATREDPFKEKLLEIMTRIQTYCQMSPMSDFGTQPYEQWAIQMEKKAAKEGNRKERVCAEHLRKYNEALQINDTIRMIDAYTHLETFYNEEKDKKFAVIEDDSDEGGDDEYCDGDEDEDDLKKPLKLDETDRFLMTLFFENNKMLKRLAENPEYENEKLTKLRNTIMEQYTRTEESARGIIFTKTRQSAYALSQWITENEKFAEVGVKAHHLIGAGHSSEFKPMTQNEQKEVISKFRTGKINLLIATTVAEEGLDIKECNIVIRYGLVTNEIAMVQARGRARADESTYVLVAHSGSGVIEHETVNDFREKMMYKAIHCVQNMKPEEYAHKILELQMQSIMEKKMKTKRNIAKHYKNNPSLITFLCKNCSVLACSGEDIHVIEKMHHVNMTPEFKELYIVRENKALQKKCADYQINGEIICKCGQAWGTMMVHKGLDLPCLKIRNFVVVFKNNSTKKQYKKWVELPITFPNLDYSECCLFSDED

[3] = molecular target: T2, TBK1 (UniProt Q9UHD2); assay: as above
T2 sequence: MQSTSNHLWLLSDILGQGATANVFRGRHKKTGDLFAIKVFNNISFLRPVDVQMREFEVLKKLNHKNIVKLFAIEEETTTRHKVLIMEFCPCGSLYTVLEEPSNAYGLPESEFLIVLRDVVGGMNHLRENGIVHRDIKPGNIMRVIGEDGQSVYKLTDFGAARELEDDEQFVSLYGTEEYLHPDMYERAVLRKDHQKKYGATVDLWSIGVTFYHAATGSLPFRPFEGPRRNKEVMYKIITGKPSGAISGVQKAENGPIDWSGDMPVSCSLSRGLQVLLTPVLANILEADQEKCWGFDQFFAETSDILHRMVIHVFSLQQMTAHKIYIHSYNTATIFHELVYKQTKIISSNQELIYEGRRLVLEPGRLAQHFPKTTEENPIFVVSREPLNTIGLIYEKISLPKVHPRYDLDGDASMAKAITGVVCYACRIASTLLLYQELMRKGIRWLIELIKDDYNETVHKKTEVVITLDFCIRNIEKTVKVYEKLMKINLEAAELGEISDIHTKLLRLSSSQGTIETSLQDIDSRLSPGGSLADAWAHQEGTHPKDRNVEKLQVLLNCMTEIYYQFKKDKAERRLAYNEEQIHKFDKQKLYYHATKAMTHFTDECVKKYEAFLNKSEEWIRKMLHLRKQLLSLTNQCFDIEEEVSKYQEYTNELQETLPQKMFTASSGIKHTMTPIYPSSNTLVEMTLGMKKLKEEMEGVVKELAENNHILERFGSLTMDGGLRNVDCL

[4] = molecular target: T3, RIG-I (UniProt O95786); assay: as above
T3 sequence: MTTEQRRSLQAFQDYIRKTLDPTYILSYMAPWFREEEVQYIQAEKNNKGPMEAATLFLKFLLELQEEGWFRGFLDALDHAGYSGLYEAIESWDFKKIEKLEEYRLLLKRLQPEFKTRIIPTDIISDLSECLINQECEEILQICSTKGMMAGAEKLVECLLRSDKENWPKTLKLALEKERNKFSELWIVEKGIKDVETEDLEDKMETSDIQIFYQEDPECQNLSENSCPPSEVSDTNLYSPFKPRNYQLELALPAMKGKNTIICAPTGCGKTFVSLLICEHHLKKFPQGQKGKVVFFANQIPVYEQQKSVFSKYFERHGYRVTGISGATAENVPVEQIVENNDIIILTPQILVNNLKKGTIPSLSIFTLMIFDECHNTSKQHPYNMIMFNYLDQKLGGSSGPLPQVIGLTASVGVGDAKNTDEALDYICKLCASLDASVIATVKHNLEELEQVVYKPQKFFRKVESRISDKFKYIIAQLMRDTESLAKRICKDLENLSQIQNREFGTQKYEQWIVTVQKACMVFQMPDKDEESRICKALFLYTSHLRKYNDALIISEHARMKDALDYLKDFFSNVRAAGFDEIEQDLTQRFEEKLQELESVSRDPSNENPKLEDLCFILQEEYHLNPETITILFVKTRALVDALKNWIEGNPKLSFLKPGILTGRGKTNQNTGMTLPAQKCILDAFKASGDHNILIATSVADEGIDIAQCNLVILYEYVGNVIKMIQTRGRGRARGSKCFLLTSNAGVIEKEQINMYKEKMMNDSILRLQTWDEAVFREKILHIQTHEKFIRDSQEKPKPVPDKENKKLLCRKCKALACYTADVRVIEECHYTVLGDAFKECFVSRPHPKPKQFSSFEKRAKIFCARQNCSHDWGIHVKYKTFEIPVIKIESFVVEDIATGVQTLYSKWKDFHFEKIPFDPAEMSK

binding [1]: binds | binding [2]: no binding | binding [3]: no binding | binding [4]: no binding
B1: inactive rhomboid protein 2 (iRhom2) (protein, UniProt Q6PJF5 1-856)
chain: MASADKNGGSVSSVSSSRLQSRKPPNLSITIPPPEKETQAPGEQDSMLPEGFQNRRLKKSQPRTWAAHTTACPPSFLPKRKNPAYLKSVSLQEPRSRWQESSEKRPGFRRQASLSQSIRKGAAQWFGVSGDWEGQRQQWQRRSLHHCSMRYGRLKASCQRDLELPSQEAPSFQGTESPKPCKMPKIVDPLARGRAFRHPEEMDRPHAPHPPLTPGVLSLTSFTSVRSGYSHLPRRKRMSVAHMSLQAAAALLKGRSVLDATGQRCRVVKRSFAFPSFLEEDVVDGADTFDSSFFSKEEMSSMPDDVFESPPLSASYFRGIPHSASPVSPDGVQIPLKEYGRAPVPGPRRGKRIASKVKHFAFDRKKRHYGLGVVGNWLNRSYRRSISSTVQRQLESFDSHRPYFTYWLTFVHVIITLLVICTYGIAPVGFAQHVTTQLVLRNKGVYESVKYIQQENFWVGPSSIDLIHLGAKFSPCIRKDGQIEQLVLRERDLERDSGCCVQNDHSGCIQTQRKDCSETLATFVKWQDDTGPPMDKSDLGQKRTSGAVCHQDPRTCEEPASSGAHIWPDDITKWPICTEQARSNHTGFLHMDCEIKGRPCCIGTKGSCEITTREYCEFMHGYFHEEATLCSQVHCLDKVCGLLPFLNPEVPDQFYRLWLSLFLHAGVVHCLVSVVFQMTILRDLEKLAGWHRIAIIFILSGITGNLASAIFLPYRAEVGPAGSQFGLLACLFVELFQSWPLLERPWKAFLNLSAIVLFLFICGLLPWIDNIAHIFGFLSGLLLAFAFLPYITFGTSDKYRKRALILVSLLAFAGLFAALVLWLYIYPINWPWIEHLTCFPFTSRFCEKYELDQVLH
